Data from PubChem BioAssay (NCI).
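48-hour exposure; five concentrations; linearly interpolated endpoints. GI50: concentration for 50% inhibition of growth. At the TGI there is no net growth.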

tested on: NCI-H322M lung; experiment: NCI tumour cell line growth inhibition, 48 h

Row | Compound | GI50 [µM] | TGI [µM]
1 | O=C1NC(=O)c2c1c1c3cc(Br)ccc3[nH]c1c1oc3ccc(F)cc3c21 | 2.65 | 8.89
2 | CC[C@]12C=CCN3CC[C@@]4(c5ccc(OC)cc5N(C)[C@H]4[C@@](O)(C(=O)OC)[C@@H]1OC(=O)CCC[P+](c1ccc(OC)cc1)(c1ccc(OC)cc1)c1ccc(OC)cc1)[C@@H]32 | 1.31 | 4.89
3 | CN(C)c1nc(NCCNS(=O)(=O)c2ccc(C(=O)/C=C/c3ccc(F)cc3)cc2)nc(N2CCOCC2)n1 | 13.2 | 25.9
